Experimental data reported in PubChem BioAssay AID1347165 (National Center for Advancing Translational Sciences (NCATS), 2019).
The whole screen tested about 220,000 compounds, of which about 5,700 (2.6%) were called active. Inconclusive means that the source gave no clear call. Such entries were picked first, then a sample of the others. The call rests on the fitted dose curve; in most records, active means well fitted inhibition curve with a large enough effect; inconclusive means small, poorly fitted or top-dose-only effect; inactive means no such curve, though single readings can be large or run the other way. Where the call is inconclusive, the potency comes from a doubtful curve fit.

target: Lysine-specific demethylase 5B (Homo sapiens) (UniProt Q9UGL1); assay: Primary screen for KDM5B Histone Demethylases FDH-coupled qHTS; conditions: FDH-coupled NADH fluorescence (FDH is formaldehyde dehydrogenase); activity change, negative = inhibition: at 57.7 µM (top of the series) unless noted; further: nearly all actives have a fitted effect of over 70% in size; on activity change, negative = inhibition: 0% is about no effect
How it was run: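 Inhibition is measured as reduced NADH fluorescence generation from FDH coupling to formaldehyde release. Truncated KDM5BΔAP at 200 nM final acts on H3K4me3 peptide (12.5 µM in substrate mix) in pH 7.5 HEPES buffer with Tween-20, 30 min, room temperature.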
Potency means the concentration at half of the fitted maximal effect; tags describe the fitted curve by direction and shape.

Chain of UniProt Q9UGL1 (Q9UGL1 whole entry, looked up, the tested form may be a part): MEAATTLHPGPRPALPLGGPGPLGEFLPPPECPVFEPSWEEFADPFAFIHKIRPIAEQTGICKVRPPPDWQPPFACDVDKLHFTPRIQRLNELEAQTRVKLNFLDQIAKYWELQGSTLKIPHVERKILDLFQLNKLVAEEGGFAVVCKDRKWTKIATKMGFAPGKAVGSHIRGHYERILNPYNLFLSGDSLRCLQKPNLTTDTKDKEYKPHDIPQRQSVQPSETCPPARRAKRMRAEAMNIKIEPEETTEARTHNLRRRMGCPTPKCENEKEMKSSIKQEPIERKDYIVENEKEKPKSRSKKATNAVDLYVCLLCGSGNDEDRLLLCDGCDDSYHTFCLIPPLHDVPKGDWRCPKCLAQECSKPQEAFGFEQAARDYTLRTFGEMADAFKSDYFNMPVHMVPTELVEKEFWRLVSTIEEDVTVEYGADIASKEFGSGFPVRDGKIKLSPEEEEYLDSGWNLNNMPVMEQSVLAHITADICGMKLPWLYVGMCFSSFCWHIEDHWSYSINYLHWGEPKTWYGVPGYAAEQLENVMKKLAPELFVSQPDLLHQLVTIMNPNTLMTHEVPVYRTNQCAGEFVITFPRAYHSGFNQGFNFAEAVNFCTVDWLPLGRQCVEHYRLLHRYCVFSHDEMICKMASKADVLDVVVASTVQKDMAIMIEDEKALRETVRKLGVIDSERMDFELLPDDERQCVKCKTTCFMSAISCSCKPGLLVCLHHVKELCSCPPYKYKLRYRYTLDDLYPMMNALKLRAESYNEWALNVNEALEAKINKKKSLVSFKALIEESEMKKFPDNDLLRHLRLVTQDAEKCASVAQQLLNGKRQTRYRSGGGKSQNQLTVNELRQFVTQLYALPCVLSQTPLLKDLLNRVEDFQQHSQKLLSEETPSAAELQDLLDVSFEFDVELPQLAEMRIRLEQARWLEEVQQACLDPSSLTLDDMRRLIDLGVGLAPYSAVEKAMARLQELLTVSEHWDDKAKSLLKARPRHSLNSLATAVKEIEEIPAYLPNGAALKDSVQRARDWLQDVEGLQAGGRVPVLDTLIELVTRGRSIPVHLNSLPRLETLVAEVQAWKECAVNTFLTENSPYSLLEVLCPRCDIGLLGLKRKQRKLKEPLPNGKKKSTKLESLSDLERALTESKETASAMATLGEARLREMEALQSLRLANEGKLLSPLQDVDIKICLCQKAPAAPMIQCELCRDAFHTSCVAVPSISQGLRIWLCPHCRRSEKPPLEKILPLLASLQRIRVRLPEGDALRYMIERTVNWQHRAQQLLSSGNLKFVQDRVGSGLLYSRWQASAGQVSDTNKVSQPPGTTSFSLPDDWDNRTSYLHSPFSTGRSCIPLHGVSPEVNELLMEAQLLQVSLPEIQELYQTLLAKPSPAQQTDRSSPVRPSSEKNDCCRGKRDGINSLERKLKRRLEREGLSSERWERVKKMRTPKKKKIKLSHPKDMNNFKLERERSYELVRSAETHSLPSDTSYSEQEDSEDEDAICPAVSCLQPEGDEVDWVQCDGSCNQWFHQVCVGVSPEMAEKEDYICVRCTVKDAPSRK

SMILES	Potency	activity change, negative = inhibition
CCc1cccc2c(C(CC(=O)NCc3ccco3)c3cccc([N+](=O)[O-])c3)c[nH]c12 (stereo unspecified)	inconclusive: 15.8 µM [inhibitor, partial curve]	
COc1ccc(N2C(=O)CSC23CCN(C(=O)Nc2ccc(C)cc2)CC3)cc1		inactive: -7.42%
O=C(NCc1ccncc1)c1cc2n(n1)CC(c1ccc(Br)cc1)OC2 (stereo unspecified)	inconclusive: 28.2 µM [inhibitor, partial curve]	
CC(=O)N1CCN(Cc2ccc(-c3cnc4c(OCc5ccccc5)nccn34)cc2)CC1	inconclusive: 22.4 µM [inhibitor, partial curve, poor fit]	
C=CCNC(=O)NC(=O)COC(=O)c1ccc(COC)cc1		inactive: 13.8%
COc1cc(CNC(=O)c2ccc3nc(CCc4ccccc4)oc3c2)cc(OC)c1OC	inconclusive: 28.2 µM [inhibitor, partial curve, poor fit]	
O=C(c1cccc2[nH]ccc12)N1C[C@@H](CO)[C@H](c2nc(C3CC3)no2)C1	active: 22.4 µM	
c1cncc(CN2CC[C@H](c3nnc(Cc4c[nH]c5ccccc45)o3)C2)c1		inactive: -7.36% [at 86.2 µM]
c1ccc2oc([C@H]3CCN(C4CCOCC4)C3)nc2c1	inconclusive: 31.6 µM [inhibitor, single point]	
O=S(=O)(NC[C@H]1O[C@@H](CO)[C@@H](O)[C@H]1N1CCOCC1)c1cccs1	inconclusive: 31.6 µM [inhibitor, partial curve, poor fit]	
CCCc1noc(-c2cccn3c(CNC(=O)Cc4ccccc4Cl)nnc23)n1	inconclusive: 20 µM [inhibitor, partial curve, poor fit]	
N#Cc1nc(/C=C/c2ccc(F)cc2)oc1NCCCN1CCOCC1	inconclusive: 2 µM [inhibitor, full curve, poor fit]	
COc1ccc2c(c1)CCc1c(C(=O)Nc3c(C)nn(Cc4ccccc4C)c3C)noc1-2	inconclusive: 28.2 µM [inhibitor, partial curve, poor fit]	
CCN(CC)C(=O)CC[C@@H]1CNC(=O)[C@@H]2C[C@H](N)CN12	inconclusive: 3.55 µM [inhibitor, full curve, poor fit]	
CN(C)CCNC(=O)c1nc2nc(-c3ccccc3)c(-c3cccc(CO)c3)cc2n1C	active: 10 µM	
Cc1cc2oc(=O)cc(CN3C(=O)c4ccccc4S3(=O)=O)c2cc1C(C)C		inactive: 29.4%
Cc1ccc(-c2noc([C@@H]3Cc4nc[nH]c4CN3C(=O)NC3CCCCC3)n2)cc1	inconclusive: 39.8 µM [inhibitor, partial curve, poor fit]	
CN(Cc1ccc(C(=O)NCC(F)(F)F)cc1)C(=O)c1ccccc1		inactive: -3.64%
CCOC(=O)CCN(C)Cc1cccc(OC)c1OC		inactive: 14.3%
Cc1ccc(CNC(=O)Nc2ccc(F)cc2F)n1C	inconclusive: 20 µM [inhibitor, partial curve, poor fit]	
Cc1cc(COc2ccc(C(=O)c3ccc(Cl)cc3)cc2)no1		inactive: 12.2%
Cc1cccc(NC(=O)c2ccc3snnc3c2)c1C		inconclusive: -33.1% [inhibitor]

SMILES	Potency	activity change, negative = inhibition
Fc1ccc(-c2cnc3n2C[C@H](CNC2CCCC2)OC3)cc1		inactive: -26.2% [at 86.2 µM]
Cc1cccc(NC(=O)c2cc3c(=O)n4cccc(C)c4nc3s2)c1C	inconclusive: 3.98 µM [inhibitor, partial curve, poor fit]	
C=C(C)CN1CCN(c2nc3c(c(=O)[nH]c(=O)n3C)n2Cc2cccc(Cl)c2)CC1		inactive: 12.2%
CN1CCc2c(c(N3CCOCC3)nc3sc(C(N)=O)c(N)c23)C1	inconclusive: 22.4 µM [inhibitor, partial curve, poor fit]	
CC(C)c1ccc(N2CC(C(=O)NCc3nc(C(C)C)no3)CC2=O)cc1 (stereo unspecified)		inactive: 9.78%
Cn1nc(C(=O)NC2CCN(C(=O)N3CC4CC(C3)[C@H]3CCCC(=O)N3C4)CC2)c2ccccc21 (stereo partly specified)	inconclusive: 35.5 µM [inhibitor, single point]	
O=[N+]([O-])c1ccc(SCCc2ccncc2)cc1	inconclusive: 28.2 µM [inhibitor, partial curve, poor fit]	
CCn1c2ccccc2c2c3ncc4cccn4c3ccc21	inconclusive: 2 µM [inhibitor, full curve, poor fit]	
CC1(C)CC(=O)C2=C(C1)OC1=C(C(=O)CC(C)(C)C1)C2c1ccccc1C(F)(F)F		inactive: 6.72%
O=C(NC(=O)c1ccccc1)Nc1ccc(-c2cc(C(F)(F)F)nn2-c2ccccc2)cc1	inconclusive: 31.6 µM [inhibitor, partial curve, poor fit]	
COC(=O)C(CCSC)NC(=O)c1cc2c(n(-c3ccc(Cl)cc3)c1=O)CCCC2=O (stereo unspecified)	inconclusive: 20 µM [inhibitor, single point]	
COc1ccc(-c2cc(-c3cccc(CO)c3)cn3cncc23)cn1	active: 35.5 µM	
CN1c2cc(C(=O)N3CCC(C(N)=O)CC3)ccc2C(=O)N2CCCCC21 (stereo unspecified)	inconclusive: 28.2 µM [inhibitor, partial curve, poor fit]	
CC1CCc2c(sc(NC(=O)CCC(=O)O)c2C(=O)NC2CC2)C1 (stereo unspecified)	inconclusive: 20 µM [inhibitor, partial curve, poor fit]	
CCOC(=O)c1oc2ccc(S(=O)(=O)n3nc(-c4cc(OC)c(OC)c(OC)c4)cc3N)cc2c1C	inconclusive: 2 µM [inhibitor, partial curve, poor fit]	
CC(c1nc(C2CC2)no1)N1CCC(c2ccnn2CCO)CC1 (stereo unspecified)		inactive: -4.46%
CCC(CO)Nc1cccc2c1S(=O)(=O)N(Cc1cn(Cc3ccc(Cl)cc3)nn1)Cc1ccccc1O2 (stereo unspecified)	inconclusive: 28.2 µM [inhibitor, single point]	
Cc1c(-c2ccccc2F)[nH]c2ccc(CNC(=O)C3C=CCN3)cc12 (stereo unspecified)	active: 28.2 µM	
C(=Nc1ccccc1N=Cc1cccs1)c1cccs1	inconclusive: 22.4 µM [inhibitor, partial curve, poor fit]	
Cc1ccc(C(=O)N2CCCC(c3nn[nH]n3)C2)cn1 (stereo unspecified)	active: 22.4 µM	
COc1ccc(/C=N/NC(=O)c2ccc(NC(C)=O)cc2)cc1COc1ccc(F)cc1F	inconclusive: 22.4 µM [inhibitor, partial curve, poor fit]	
N#C/C(=C\c1ccc(-c2ccc(Br)cc2)o1)C(=O)c1ccccc1		inactive: -3.39%

SMILES	Potency	activity change, negative = inhibition
Brc1ccccc1N/N=C(/C=C/c1ccccc1)c1ccccc1	inconclusive: 22.4 µM [inhibitor, partial curve, poor fit]	
Cc1ccc(-n2nc(CO)c(C(=O)NCCCc3ccccc3)n2)cc1C	inconclusive: 1.58 µM [inhibitor, full curve, poor fit]	
CCOC(=O)N1CCC(NC(=O)c2cc3ccc(OC)cc3[nH]2)CC1		inactive: 27.8%
Cc1ccc(C)c(S(=O)(=O)c2nnn3c2nc(NC(C)C)c2sccc23)c1	inconclusive: 1 µM [inhibitor, partial curve, poor fit]	
O=C(O)c1ccc2nc(-c3cc4cccc(O)c4oc3=O)[nH]c2c1	inconclusive: 25.1 µM [inhibitor, partial curve, poor fit]	
NS(=O)(=O)c1ccc(NC(=O)CN2C(=O)COc3ccc(Cl)cc32)cc1		inconclusive: -30.8% [inhibitor] [at 11.5 µM]
COc1ccc(N2CCN(c3csc4ccc(Cl)cc4c3=O)CC2)cc1	inconclusive: 25.1 µM [inhibitor, partial curve, poor fit]	
Cc1c(Cl)cccc1NC(=O)Cn1ccn2nc(-c3ccc(F)cc3)c(CO)c2c1=O	inconclusive: 39.8 µM [inhibitor, single point]	
CNC(=O)NCc1ccc(OC)cc1		inactive: 21.2%
CCOc1ccccc1CN(C)C1CCc2nn(CC3CC3)c(=O)n2CC1 (stereo unspecified)		inactive: -26.6%
O=C(O)Cc1sc(Nc2ccccc2)nc1-c1ccccc1	inconclusive: 35.5 µM [inhibitor, single point]	
COc1ccc(S(=O)(=O)NCCS(=O)(=O)N2CCN(c3ccccc3)CC2)cc1C	inconclusive: 17.8 µM [inhibitor, partial curve, poor fit]	
O=C(O)Cc1ccc(NC2(c3ccccc3)C(=O)c3ccccc3C2=O)cc1	inconclusive: 15.8 µM [inhibitor, single point]	
O=C(O)C[C@@H]1CCN(C(=O)c2ccco2)C[C@@H]1CC1=NCCc2ccccc21	inconclusive: 31.6 µM [inhibitor, single point]	
O=C(Cc1ccccn1)NC1CCN(c2nc3ncccc3o2)CC1	inconclusive: 56.2 µM [inhibitor, partial curve, poor fit]	
Cc1cc(OCC(=O)NCc2ccncc2)c2c(C)c(C)c(=O)oc2c1	inconclusive: 2 µM [inhibitor, full curve, poor fit]	
COC(=O)c1ccccc1NC(=O)C1=C(C)C(=O)OC12CCCCCC2	inconclusive: 31.6 µM [inhibitor, single point]	
CC1CCN(C(=O)C2(CCO)CC23CCOCC3)CC1 (stereo unspecified)		inactive: -2.5%
CC1=C/C(=N/NC(=S)Nc2ccc(Cl)cc2)CC(C)(C)C1		inactive: 16.7%
COc1ccc(Br)cc1CNC(=O)CCSCc1ccc(C)cc1		inconclusive: -30.8% [inhibitor]
Cc1ccc(S(=O)(=O)N2CCN(Cc3nc4ccc(C)cc4o3)CC2)cc1	inconclusive: 28.2 µM [inhibitor, single point]	
O=C(Cn1cc(S(=O)(=O)c2ccccc2)c(=O)c2cc3c(cc21)OCO3)Nc1ccc(Cl)cc1	inconclusive: 25.1 µM [inhibitor, partial curve, poor fit]	
